Out of some 120,000 compounds screened, about 5,300 (4.4%) were called active. Inconclusive results, whose numbers are uncertain, are shown with a selection of clear calls. Calls follow the shape of the dose curve; as a rule, active = well fitted inhibition curve with a large enough effect; inconclusive = small, poorly fitted or top-dose-only effect; inactive = no such curve, though single readings can be large or run the other way. Potencies beside an inconclusive call are fits to weak or partial responses and may not hold up.
Assay: qHTS Primary assay for Inhibitors of Plasmodium falciparum Dd2 growth in vitro; also: nearly all actives have a fitted effect of over 65% in size;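 as to activity, negative = inhibition: plate controls were DMSO vehicle for no effect and reference drug for full effect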
Conditions: P. falciparum Dd2 growth, SYBR Green, 72 h; activity, negative = inhibition: at 28.9 µM (top of the series) unless noted; series mostly up to 28.9 µM
Summary of the method: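 Infected erythrocytes (Dd2, 0.3% parasitemia, 2.5% hematocrit final) are added to compound in RPMI-1640/Albumax II medium, grown 72 h at 37C in low oxygen, then lysed with saponin/Triton-X containing SYBR Green and read by fluorescence.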
Potency is read from the fitted curve at half-maximal effect; tags tell the direction and shape of the fitted curve.

| SMILES | activity, negative = inhibition | Potency | outcome |
| --- | --- | --- | --- |
| O=C(C[C@@H]1C[C@H]2O[C@H](CNC3CCC(F)(F)CC3)[C@@H](O)[C@H]2O1)N1CCC(F)(F)C1 | inactive: 0.391% [at 44.1 µM] | – | – |
| CCOc1cc2sc(N3CCC(C(=O)Nc4ccc(C(C)C)cc4)CC3)nc2cc1Br | – | inconclusive: 20 µM [inhibitor, partial curve, poor fit] | – |
| CC(C)C(=O)N1CCCCCCNC(=O)[C@@H]2C[C@@H](C(=O)NCCc3c[nH]c4ccccc34)C[C@@H]21 | – | inconclusive: 1.41 µM [inhibitor, partial curve, poor fit] | – |
| COc1ccc(C(=O)N2CCC(n3cc(-c4nc(-c5ccccc5)no4)nn3)C2)cc1F (stereo not drawn) | – | inconclusive: 8.91 µM [inhibitor, partial curve, poor fit] | – |
| COc1ccc(-c2nc(C)nc3c2CCN(CC2CC2)CC3)cc1 | – | – | inactive [at 44.1 µM] |
| c1ccc(CN2CC(N3CCc4ccccc43)C2)cc1 | – | inconclusive: 10 µM [inhibitor, partial curve] | – |
| Cc1cc(OCC(=O)N2CCN(CCc3ccncc3)CC2)ccc1Cl | – | inconclusive: 11.2 µM [inhibitor, single point] | – |
| Cn1ccnc1CNC(=O)C[C@@H]1C[C@H]2O[C@H](CNC(=O)NCc3ccccc3)[C@@H](O)[C@H]2O1 | inactive: 28.4% | – | – |
| CCOC(=O)C1CCN(c2cc3c(cc2NC(=O)c2ccc(OC)c(OC)c2)n(C)c(=O)n3C)CC1 | – | active: 8.91 µM | – |
| COc1ccc(-c2noc([C@@H]3C[C@H](NS(=O)(=O)c4ccccc4)CN3C)n2)cc1 | – | – | inactive [at 44.1 µM] |
| Cc1noc(-c2cn(C3CCN(C(=O)c4cc(F)ccc4F)CC3)nn2)n1 | – | – | inactive |
| COc1ccc(C2Cn3nnc(-c4noc(-c5ccco5)n4)c3CO2)cc1 (stereo not drawn) | – | inconclusive: 3.16 µM [inhibitor, single point] | – |
| Cc1cccc(-c2nc3c(cnn3-c3ccccc3)c(=O)n2-c2cccc(Cl)c2)c1 | – | inconclusive: 11.2 µM [inhibitor, partial curve, poor fit] | – |
| O=C(NCCc1ccccc1)c1ccc2c(c1)N(Cc1ccccc1)C(=O)c1ccccc1S2=O (stereo not drawn) | – | inconclusive: 20 µM [inhibitor, partial curve, poor fit] | – |
| O=C(NC1CCNC1)C1CCN(c2nc(-c3ccccc3)nc3c2CCC3)CC1 (stereo not drawn) | – | active: 7.08 µM | – |
| CCC1(N2CCN(C(=O)c3cc(F)ccc3Cl)CC2)CCN(C(=O)C(C)C)C1 (stereo not drawn) | – | inconclusive: 12.6 µM [inhibitor, single point] | – |
| CC(=O)c1cc(CN2CCC3(CC2)CN(CC(C)c2ccccc2)C(=O)O3)cs1 (stereo not drawn) | – | inconclusive: 10 µM [inhibitor, partial curve] | – |
| CC(C)(C)OC(=O)N1CCC(c2c(C(=O)Nc3ccc4c(c3)OCCO4)cnn2-c2ccc(F)cc2)CC1 | – | active: 7.94 µM | – |
| Cc1ccc(CNC(C)c2ccccc2)s1 (stereo not drawn) | – | inconclusive: 17.8 µM [inhibitor, single point] | – |

| SMILES | activity, negative = inhibition | Potency | outcome |
| --- | --- | --- | --- |
| CC(C)(C)C(=O)N1CCC2(CC1)CC(=O)N(c1ccccc1)c1ccccc1O2 | – | inconclusive: 2.51 µM [inhibitor, partial curve, poor fit] | – |
| COC(=O)[C@@H](C)NC(=O)[C@@H]1CN(C(=O)c2cccc(F)c2)CCN1C(C)=O | – | inconclusive: 2.51 µM [inhibitor, full curve, poor fit] | – |
| CCOc1ccc2c(c1)[C@@H]1C=CC[C@@H]1[C@H](c1ccccc1Cl)N2 | – | inconclusive: 10 µM [inhibitor, single point] | – |
| COc1ccc(CCN2Cc3cc(NC(=O)c4cccc(F)c4)ccc3OC(C)C2=O)cc1 (stereo not drawn) | – | inconclusive: 1.58 µM [inhibitor, single point] | – |
| COc1ccc(-c2ccnc3nc(-c4ccco4)nn23)c(F)c1 | – | inconclusive: 12.6 µM [inhibitor, partial curve] | – |
| COc1cc(F)ccc1C(C(=O)O)N1CCC(Oc2cccc(F)c2)CC1 (stereo not drawn) | – | inconclusive: 2.51 µM [inhibitor, partial curve, poor fit] | – |
| CCCCCC(=O)Nc1nc2c(s1)C[C@@H]1[C@](C)(CO)[C@H](O)CC[C@@]1(C)[C@@H]2CC(=O)NCCOC | – | inconclusive: 10 µM [inhibitor, single point] | – |
| CN(C)c1ccc(C(CNC(=O)Cc2ccc(Cl)cc2)N2CCOCC2)cc1 (stereo not drawn) | – | inconclusive: 10 µM [inhibitor, partial curve] | – |
| COc1ccc(CCC(=O)N2CCC[C@H]2c2nc(-c3ccc(OC)cc3)no2)cc1 | – | inconclusive: 17.8 µM [inhibitor, single point] | – |
| CCc1ccccc1CN1CCCCC12Cc1ccccc1CNC2=O (stereo not drawn) | – | inconclusive: 10 µM [inhibitor, partial curve] | – |
| CC(C)(C)OC(=O)N1CCC(c2c(C(=O)Nc3cccc(C(F)(F)F)c3)cnn2-c2ccc(F)cc2F)CC1 | – | active: 11.2 µM | – |
| COc1cc(NC(=O)c2ccc(N3CC4CC(C3)[C@H]3CCCC(=O)N3C4)nc2)cc(OC)c1 (stereo partly drawn) | – | inconclusive: 2.51 µM [inhibitor, full curve, poor fit] | – |
| CC(C)Cc1cc(C(=O)N[C@H]2CN(C(=O)N(C)C)C[C@@H]2C2CC2)nc(N)n1 | inactive: 8.81% | – | – |
| O=C(O)c1ccccc1C(=O)N[C@H]1CO[C@H]2[C@@H]1OC[C@@H]2n1nnnc1Oc1ccc(-n2ccnc2)cc1 | inactive: -4.42% | – | – |
| COc1ccc(C(=O)Nc2cccc(-c3nnc4n3CCCC4)c2)cc1F | – | inconclusive: 1.12 µM [inhibitor, full curve, poor fit] | – |
| O=C(NCc1ccco1)C1CCc2sc(C(=O)N3CCCCCC3)cc2C1 (stereo not drawn) | – | inconclusive: 0.112 µM [inhibitor, full curve] | – |
| CN(C)C[C@@H]1CN(c2ncccn2)C[C@H]1NC(=O)Cc1cccc(Cl)c1 | – | inconclusive: 3.98 µM [inhibitor, partial curve, poor fit] | – |
| CCOc1ccc(NC(=O)c2oc3ccccc3c2NC(=O)c2ccc(OC)cc2OC)cc1 | – | inconclusive: 0.891 µM [inhibitor, single point] | – |
| CC1(COCC2CC2)COc2ccc(C(=O)N3CCOCC3c3cccc(F)c3)cc2N1 (stereo not drawn) | – | inconclusive: 1 µM [inhibitor, full curve] | – |

— PubChem BioAssay AID1347417 (National Center for Advancing Translational Sciences (NCATS), 2020)
